Assay results from PubChem BioAssay (NCATS).
Records with an inconclusive call do not appear. Calls follow the shape of the dose curve; as a rule, active = well fitted curve in the direction sought with a large enough effect; inconclusive = small, poorly fitted or top-dose-only effect, or another doubt; inactive = no such curve, though single readings can be large; an effect the other way counts as inactive or inconclusive. Some entries of the source have several records that differ or are many. The other results are left out here. The source may hold further records. The values listed for one entry are repeated measurements (runs, samples, wells, individuals or studies). The source holds several records for some structures; these can differ, active in one and inactive in another. Brackets tell where a record comes from. A, B and so on number the origins entry by entry. Marks such as (2×) say how often a value occurs here.

Assays:
[1] = qHTS of pediatric cancer cell lines to identify multiple opportunities for drug repurposing: Primary screen for NB-EBc1 cells (AID 1347095); also: potency is read from the fitted curve at half-maximal effect
[2] = qHTS of pediatric cancer cell lines to identify multiple opportunities for drug repurposing: Primary screen for NB1643 cells (AID 1347099); also: nearly all actives have a fitted effect of over 50% in size; also: potency is read from the fitted curve at half-maximal effect
[3] = Confirmatory qHTS for small molecule stabilizers of the endoplasmic reticulum resident proteome: Secreted ER Calcium Modulated Protein (SERCaMP) assay (AID 1508628); also: nearly all actives have a fitted effect of over 40% in size; also: potency is read from the fitted curve at half-maximal effect
Outline: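 GLuc-SERCaMP-expressing SH-SY5Y cells, pretreated 16 h with compound, are challenged with thapsigargin to empty ER calcium stores; after 4 h, coelenterazine is added directly to the medium and luminescence is imaged.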

[4] = qHTS of pediatric cancer cell lines to identify multiple opportunities for drug repurposing: Primary screen for LAN-5 cells (AID 1347100); also: potency is read from the fitted curve at half-maximal effect
Outline: (§1)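 Cells (500-1,000/well) rested 5 h, then received compounds for 48 h; metabolically active cells were measured by CellTiter-Glo luminescence. Final concentrations spanned up to 46 µM (MIPE, 11-point) or 0.59 nM-46 µM (NPC, 8-point) in primary screens, 11-point in follow-ups.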

[5] = tested on: Zika virus NS2B-NS3 protease; assay: Primary screen GU AMC qHTS for Zika virus inhibitors (AID 1347154); also: nearly all actives have a fitted effect of over 70% in size; also: potency is read from the fitted curve at half-maximal effect
Outline: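 Fluorogenic AMC-substrate cleavage by noncovalent NS2B-NS3 protease complex (25 nM, pH 8.0 Tris buffer with Tween 20) followed for 15 minutes at room temperature (~20% conversion). Percent inhibition from ex340/em450 signal change, fitted by 4-parameter Hill equation.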

[6] = qHTS Assay for Lipid Storage Modulators (AID 1519); details: Drosophila S3 cells, BODIPY lipid droplet/cell ratio, laser cytometry, cells loaded with oleic acid
Outline: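 Cells seeded at 5,000 per well were treated with compounds over a concentration series and loaded with oleic acid (400 uM, as added). Lipid droplet fluorescence (488 nm excitation, 500-530 nm channel) was read by laser-scanning cytometry and normalized to 20 uM Triacsin C.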

[7] = qHTS of pediatric cancer cell lines to identify multiple opportunities for drug repurposing: Primary screen for SK-N-MC cells (AID 1347093); also: potency is read from the fitted curve at half-maximal effect
[8] = qHTS of pediatric cancer cell lines to identify multiple opportunities for drug repurposing: Primary screen for BT-37 cells (AID 1347094); also: potency is read from the fitted curve at half-maximal effect
Outline: (§2)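 CRCs from 8- or 11-point titrations (lowest final 0.59 nM NPC, 0.78 nM MIPE). Cell viability: CellTiter-Glo after 48 h incubation, 15 min room-temperature development, luminescence imaging.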

[9] = qHTS of pediatric cancer cell lines to identify multiple opportunities for drug repurposing: Primary screen for RD cells (AID 1347104); also: nearly all actives have a fitted effect of over 55% in size; also: potency is read from the fitted curve at half-maximal effect
Outline: as §2

[10] = tested on: Zika virus NS2B-NS3 protease (linked); assay: 384 well plate NINDS AMC confirmatory qHTS for Zika virus inhibitors (AID 1347163); also: nearly all actives have a fitted effect of over 50% in size; also: potency is read from the fitted curve at half-maximal effect
Outline: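 Enzyme (5, 30 or 60 nM final) first met test compounds for ~15 min. The AMC-tagged peptide Ac-VKTGKR-AMC followed at 30 microM. Fluorescence was then recorded at 25 min and scaled against no-enzyme and no-inhibitor wells.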

[11] = qHTS of pediatric cancer cell lines to identify multiple opportunities for drug repurposing: Primary screen for SK-N-SH cells (AID 1347098); also: nearly all actives have a fitted effect of over 65% in size; also: potency is read from the fitted curve at half-maximal effect
Outline: as §1

[12] = Primary qHTS for inhibitors of La Crosse Virus (LACV) - induced cell death in SH-SY5Y cells (AID 1508616); also: potency is read from the fitted curve at half-maximal effect
Outline: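 Cytopathicity rescue screen: compounds pinned onto SH-SY5Y cells, which are then infected with LACV (MOI 0.01) and held 6 days at 37C. Percent activity is scaled between infected DMSO control and uninfected DMSO control.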

CCOC(=O)C(C)(C)Oc1ccc(Cl)cc1
Potency [1]: active: 20.9 µM [sample A] and inactive [sample B] | Potency [2]: active: 23.5 µM [sample A] and inactive [sample B]

O=c1c(O)c(-c2ccc(O)c(O)c2)oc2cc(O)cc(O)c12
Potency [3]: active: 8.91, 31.6 (2×), 3.16, 25.1, 12.6, 6.31, 5.62, 7.94, 15.8 µM and inactive [separate samples]

Clc1ccc(C(c2ccccc2Cl)C(Cl)Cl)cc1 (stereo not drawn)
Potency [4]: inactive [sample A] and active: 37.2 µM [sample B]

CS(=O)(=O)Nc1ccc([N+](=O)[O-])cc1Oc1ccccc1
Potency [2]: inactive [sample A] and active: 14.8 µM [sample B] | Potency [4]: inactive [sample A] and active: 20.9 µM [sample B]

CN(Cc1cnc2nc(N)nc(N)c2n1)c1ccc(C(=O)N[C@@H](CCC(=O)O)C(=O)O)cc1
Potency [5]: inactive [sample A] and active: 20.3 µM [sample B]

CN1CCC(=C2c3ccccc3C=Cc3ccccc32)CC1
Potency [2]: inactive [sample A] and active: 11.8 µM [sample B] | Potency [4]: inactive [sample A] and active: 20.9 µM [sample B]

COc1ccc2[nH]cc(CCNC(C)=O)c2c1
max response ([6]; measured here: cell count channel max response): -1.52, 13.7, -38.8, 18.7% [separate samples] | max response ([6]; measured here: lipid channel max response): 1.9, 28.4, -51.2, 25.4% [separate samples] | Potency [7]: active: 18.7 µM [sample A] and inactive [sample B]

N[C@@H](Cc1c[nH]c2ccc(O)cc12)C(=O)O
Potency [8]: active: 24.3 µM [sample A] and inactive [sample B] | Potency [1]: active: 18.7 µM [sample A] and inactive [sample B]

COc1cc2c(c(OC)c1OC)-c1ccc(OC)c(=O)cc1[C@@H](NC(C)=O)CC2
Potency [4]: active: 59.6 nM [sample A] and inactive [sample B]

O=C1Cc2cc(CCN3CCN(c4nsc5ccccc45)CC3)c(Cl)cc2N1
Potency [9]: inactive [sample A] and active: 33.2 µM [sample B] | Potency [10]: inactive [sample A] and active: 10 µM [sample B]

O=C(Nc1ccc([N+](=O)[O-])cc1Cl)c1cc(Cl)ccc1O
Potency [11]: active: 1.68 µM [sample A] and inactive [sample B]

CCCCc1oc2ccccc2c1C(=O)c1cc(I)c(OCCN(CC)CC)c(I)c1
Potency [2]: active: 14.8 µM [sample A] and inactive [sample B]

CC(COc1ccccc1)N(CCCl)Cc1ccccc1 (stereo not drawn)
Potency [8]: inactive [sample A] and active: 8.63 µM [sample B] | Potency [1]: inactive [sample A] and active: 23.5 µM [sample B]

COC(=O)Nc1nc2ccc(C(=O)c3cccs3)cc2[nH]1
Potency [2]: inactive [sample A] and active: 266 nM [sample B] | Potency [12]: inactive [sample A] and active: 100 nM [sample B]
